From PubChem BioAssay AID1645887 (National Center for Advancing Translational Sciences (NCATS), 2021)
Several values for one entry are separate records, joined by “and”; a condition that tells them apart may be missing. Equal entries are not always repeated. Among all 16,000 compounds or so, about 40 (0.2%) were called active. Inconclusive results (about 1%) are left out. The call rests on the fitted dose curve; in most records, active means well fitted activation curve with a large enough effect; inconclusive means small, poorly fitted or top-dose-only effect, or another doubt; inactive means no such curve, though single readings can be large or run the other way. The list shows a part of the results.

What follows are molecules tested against Rap guanine nucleotide exchange factor 4 (Homo sapiens) (UniProt Q8WZA2) (assay: Validation qHTS for agonist of cAMP-regulated guanine nucleotide exchange factor 4 (EPAC2)). Conditions: EPAC2 Rap1B BODIPY-GDP exchange, fluorescence; activation: stronger effect = higher value.
Outline: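 Signal normalized against 6.5 mM cAMP as agonist control. Mix of EPAC2 (100 nM), RAP1B-BODIPY-GDP (250 nM) and GDP (50 uM) was read kinetically at 480/540 nm, every 5 min over 30 min, after 5 min room-temperature incubation with compound.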
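Further: exchange makes BODIPY-GDP fluorescence drop when released from Rap1B; series mostly up to about 150 µM.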
On the % scale 0 is the no-effect control and ±100 the full control effect.

Sequence of UniProt Q8WZA2 (Q8WZA2 whole entry, looked up): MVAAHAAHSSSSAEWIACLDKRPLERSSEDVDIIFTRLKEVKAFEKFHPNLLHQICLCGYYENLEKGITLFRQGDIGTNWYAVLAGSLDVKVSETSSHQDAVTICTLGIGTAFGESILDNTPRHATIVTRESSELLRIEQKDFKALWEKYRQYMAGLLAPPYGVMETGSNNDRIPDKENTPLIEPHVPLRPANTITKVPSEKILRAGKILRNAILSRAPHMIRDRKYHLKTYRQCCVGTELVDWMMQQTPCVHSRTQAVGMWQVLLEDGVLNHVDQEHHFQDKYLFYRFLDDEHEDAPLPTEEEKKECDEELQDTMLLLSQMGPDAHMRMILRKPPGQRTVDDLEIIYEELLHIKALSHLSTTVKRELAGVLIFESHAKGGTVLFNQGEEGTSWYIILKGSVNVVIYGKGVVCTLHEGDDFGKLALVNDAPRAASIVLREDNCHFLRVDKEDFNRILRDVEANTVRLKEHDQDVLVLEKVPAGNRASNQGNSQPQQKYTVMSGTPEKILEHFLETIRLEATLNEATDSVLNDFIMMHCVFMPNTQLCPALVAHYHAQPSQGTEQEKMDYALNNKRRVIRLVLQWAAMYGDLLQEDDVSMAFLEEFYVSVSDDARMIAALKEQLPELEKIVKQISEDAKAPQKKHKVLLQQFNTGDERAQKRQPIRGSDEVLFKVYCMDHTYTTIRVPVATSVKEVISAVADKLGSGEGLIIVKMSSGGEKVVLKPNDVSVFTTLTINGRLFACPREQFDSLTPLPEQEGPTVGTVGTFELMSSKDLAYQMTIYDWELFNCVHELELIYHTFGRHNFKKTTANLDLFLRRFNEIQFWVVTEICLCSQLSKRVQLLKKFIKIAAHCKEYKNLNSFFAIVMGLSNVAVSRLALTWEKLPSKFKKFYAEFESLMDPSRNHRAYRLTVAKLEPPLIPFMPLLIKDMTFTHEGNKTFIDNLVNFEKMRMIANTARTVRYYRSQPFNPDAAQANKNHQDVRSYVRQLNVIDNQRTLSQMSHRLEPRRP

activation, inactive:
CN1C2CCCC1CC(NC(=O)c1nn(C)c3ccccc13)C2 (stereo not drawn) -8.81%
COc1cccc(NC(=O)/C=C\c2ccc(Cl)cc2)c1 -7.57%
C=C1C(=C/C=C2\CCC[C@]3(C)[C@@H]([C@H](C)CCCC(C)(C)O)CC[C@@H]23)C[C@@H](O)C[C@@H]1O -17.1%
C#C[C@@]1(O)CCC2C3CCC4=CC(=O)CCC4C3CC[C@@]21CC (stereo partly drawn) 9.43%
O=c1c(-c2cccs2)nc2cnc(Oc3ccccc3)nc2n1C1CC1 -12.7%
CN(Cc1ccco1)c1ccnc(-c2cccc(NS(C)(=O)=O)c2)n1 -12.3%
CCOC(=O)C1CCCCN1C(=O)c1cnn(-c2nccc(-c3cc(C)sc3C)n2)c1C1CC1 (stereo not drawn) -17%
COc1cccc(Cn2c(=O)c(-c3ccc(F)cc3)nc3cnc(N(C)C)nc32)c1 -3.02%
CC(C)NC[C@@H](O)COc1ccc(COCCOC(C)C)cc1 -11.8%
Nc1nc(O)c2ncn([C@H]3CC[C@@H](CO)O3)c2n1 -0.153%
COc1ccc2[nH]cc(CCNc3ncncc3-c3ccccc3OC)c2c1 9.15%
Cn1cccc1C(=O)N1CCC2(CC1)CN(c1cccc(-c3ccccc3)c1)C2 14.4%
COc1ccc(C(=O)N2CCC[C@@]3(CCN(c4ccccc4)C3)C2)cc1 -9%
COC(=O)c1cc(CNC(=O)c2cnsn2)cc(NC(=O)c2ccccc2OC)c1 3.07%
Cc1nc2cnc(OCc3ccccc3)nc2n(C)c1=O 4.87%
COc1ccc(CN2CCC(n3cc(C(=O)N4CCCC4)nn3)CC2)c(OC)c1C -4.41%
CC1CC2C3CCC4=CC(=O)C=C[C@]4(C)[C@@]3(Cl)C(O)C[C@]2(C)C1(OC(=O)c1ccco1)C(=O)CCl (stereo partly drawn) -23.1%
CCCCCc1ccc(-c2cn(CCc3c[nH]c4ccccc34)nn2)cc1 -19.3%
CC(=O)OC1CCC23CC1(C)CCC2C(C)(C)CC3OC(C)=O (stereo not drawn) -9.01%
COc1ccc(OC)c2c(C)ccnc12 -10.2%
O=C(NCC1(N2CCOCC2)CCCCC1)c1cnn(-c2nccc(-c3ccco3)n2)c1C1CC1 7.16%
O=c1c(CCc2ccccc2)nc2cnc(N3CCOCC3)nc2n1CCc1ccccc1 -9.04%
CC(C)(C)C1CCC(=O)N(CCSc2ccccc2)CC1 (stereo not drawn) -16%
CC(=O)Oc1cc(OC(C)=O)c2c(c1)OC(c1ccc(OC(C)=O)c(OC(C)=O)c1)C(OC(C)=O)C2 (stereo not drawn) -21.9% and -5.37%
C=CC[C@@H]1/C=C(\C)C[C@H](C)C[C@H](OC)[C@H]2O[C@@](O)(C(=O)C(=O)N3CCCC[C@H]3C(=O)O[C@H](/C(C)=C/[C@@H]3CC[C@@H](O)[C@H](OC)C3)[C@H](C)[C@@H](O)CC1=O)[C@H](C)C[C@@H]2OC -32.1%
C=C(C)C1Cc2c(ccc(C(=O)O)c2O)O1 (stereo not drawn) -11%
Cc1cnc(CNc2ccnc(-c3ccc(C(=O)N(C)C)cc3)n2)cn1 -2.76%
O=Nc1c(-c2c(O)[nH]c3ccccc23)[nH]c2ccccc12 -3.12% and -11.1% and -53.9%
Cc1ccc(C(=O)c2cc(O)c(O)c([N+](=O)[O-])c2)cc1 4.14%
Cc1cnc(-n2ncc(C(=O)NCC3CCCN(C)C3)c2C)nc1-c1cccs1 (stereo not drawn) 5.63%
COCc1c(C(C)C)nc(C(C)C)c(/C=C/[C@@H](O)C[C@@H](O)CC(=O)O)c1-c1ccc(F)cc1 -43.4%
COc1ccc(-c2nc3cc(C)ccc3cc2CN(C(=O)c2csc(C)n2)C2CC2)cc1OC 5.64%
COCCC(=O)NCC1Cc2cc(Cl)cc(-c3ccc4[nH]ccc4c3)c2O1 (stereo not drawn) -17.7%
CC(=O)OC1CC[C@]2(C)C(CC(OC(C)=O)[C@]3(C)C2CC[C@@]2(C)C(c4ccoc4)OC(=O)C4O[C@]432)C1(C)C (stereo partly drawn) -22.7%
Cn1cccc1C(=O)N1CCC2(CC1)CCN(C(c1ccccc1)c1ccccc1)CC2 -16.9%
COc1ccc(C(=O)NCc2cccnc2)cc1C(=O)NCc1cccnc1 -39%
CO[C@H]1[C@H](NC(=O)c2ccsc2)c2ccccc2C12CCN(Cc1cc(Cl)ccc1O)CC2 -16.6%
CC=CC1=C(C(=O)O)N2C(=O)[C@H](NC(=O)[C@H](N)c3ccc(O)cc3)[C@@H]2SC1 -0.256%
CS(=O)(=O)N1CCC2(CCCN(C(=O)Nc3ccccc3)C2)CC1 -3.26%
COc1ccccc1-c1nc(NCCNC(C)=O)c2ccccc2n1 -22.8%
CC1(C)CC[C@]2(C(=O)O)CC[C@@]3(C)C(=CCC4[C@@]5(C)CCC(O)[C@@](C)(CO)C5CC[C@@]43C)C2C1 (stereo partly drawn) -35%
CCOC(=O)[C@H](N)/C=C(\C)CP(=O)(O)O -14.6%
CS(=O)(=O)N1CCC2(CCN(c3cccc(-c4ccccc4)c3)CC2)CC1 7.37%
CC(=O)N[C@@H](CC(C)C)C(=O)O -4.65%
Cc1nccn1CC1CCC2C(C1=O)c1ccccc1N2C (stereo not drawn) 5.56%
CC[C@]1(O)C[C@@H]2CN(CCc3c([nH]c4ccccc34)[C@](C(=O)OC)(c3cc4c(cc3OC)N(C)[C@H]3[C@](O)(C(=O)OC)[C@@H](C(=O)OC)[C@@]5(CC)C=CCN6CC[C@@]43[C@@H]65)C2)C1 0.335%
C[N+]1(CC(=O)c2cccc([N+](=O)[O-])c2)CCOCC1 -6.39%
CCOC(=O)c1ccc(-c2c(-c3cc(OC)c(OC)c(OC)c3)noc2C)cc1F -9.26%
CNCCCCCCCCSc1nc(C(C)C)ccc1C(=O)c1cccs1 -15.8%
OCc1cc2c(cn1)[nH]c1ccccc12 2.17%
CN1CCCC1CCOC(C)(c1ccccc1)c1ccc(Cl)cc1 (stereo not drawn) -16.9%
O=C(Nc1ccccc1)O[C@@H]1C[C@H]2CCCC(=O)N3CC[C@@H](C1)[C@@H]23 -8.09%
COC[C@H](c1ccc(C(F)(F)F)cc1)N1CCN(C2(C)CCN(C(=O)c3c(C)ncnc3C)CC2)C[C@H]1C -6.13%
O=S(=O)(c1ccccc1)N1CCC2(CCCN(c3cccc(-c4ccccc4)c3)C2)CC1 11.2%
CC(=O)N1CCC[C@H]1C(=O)NCC1Cc2cc(C)cc(-c3ccc(Cl)cc3)c2O1 (stereo partly drawn) -1.06%
COc1ncc2nc(CCc3ccccc3)c(=O)n(C)c2n1 2.44%
COc1cccc(-c2cc3c(c(OC)c2)OCCN(S(=O)(=O)c2ccccc2OC(F)(F)F)C3)n1 -15.3%
C=CCN1CCc2cc(O)c(O)cc2[C@H](c2ccccc2)C1 -0.733%
COc1c2ccoc2nc2c(OC)c(OCC(O)C(C)(C)O)ccc12 (stereo not drawn) -12.1% and 4.47%
COc1cccc(Cn2c(=O)c(CCc3ccccc3)nc3cnc(N4CCNCC4)nc32)c1 9.21%
C[C@H]1C[C@H]2[C@@H]3CCC4=CC(=O)C=C[C@]4(C)[C@@H]3C(=O)C[C@]2(C)[C@@]1(O)C(=O)CO 3.67%
COc1ccc(CNc2ncncc2-c2ccc3c(c2)OCO3)c(OC)c1 6.24%
CNc1ccnc(-c2cccc(NS(C)(=O)=O)c2)n1 1.54%
O=c1[nH]cnc2n[nH]nc12 -9.8%
CCCc1ccc(C(=O)O)cc1 10.8%
C=C1C[C@H](OC(=O)C(C)(O)CCl)C2C(=C)C(=O)O[C@@H]2C2C1C[C@H](O)[C@]2(O)CCl (stereo partly drawn) -18.1%
COc1ccc(CN2CCCC(n3cc(C(=O)N4CCCCC4)nn3)C2)c(OC)c1 (stereo not drawn) -20.1%
CSc1nc(N)c2ncn([C@@H]3O[C@H](COP(=O)(O)OP(=O)(O)OP(=O)(O)O)[C@@H](O)[C@H]3O)c2n1 15.6% and -23.4%
CN1CCc2cc3c(cc2C(=O)Cc2ccc4c(c2C1)OCO4)OCO3 15.3%
O=C(Nc1ccccc1)N1CC2(CCN(C(=O)c3cnccn3)CC2)C1 -2.68%
Cc1oc(-c2ccccc2NC(=O)c2cccnc2)nc1CNC(=O)C1CCCCCN1C (stereo not drawn) -11.3%
CC[C@H]1OC(=O)[C@H](C)[C@@H](O[C@H]2C[C@@](C)(OC)[C@@H](O)[C@H](C)O2)[C@H](C)[C@@H](O[C@@H]2O[C@H](C)C[C@H](N(C)C)[C@H]2O)[C@](C)(O)C[C@@H](C)/C(=N\OCOCCOC)[C@H](C)[C@@H](O)[C@]1(C)O -27.6%
O=C1NC(=O)[C@@]2(CCOc3ccc(F)cc32)N1 21.1%
C=C(Br)COC(c1ccco1)[C@H](Cc1ccccc1)NC(=O)OC(C)(C)C (stereo partly drawn) -12.7%
COc1ccc(C(=O)NCC2Cc3cccc(-c4ccc(S(C)(=O)=O)cc4)c3O2)c(OC)n1 (stereo not drawn) -18%
CO/N=C(/C(=O)N[C@H]1C(=O)N2C(C(=O)O)=C(COC(C)=O)CSC12)c1csc(N)n1 (stereo partly drawn) 0.516%
Nc1nc(F)nc2c1ncn2[C@@H]1O[C@H](CO)[C@@H](O)[C@@H]1O -0.223% and 3.09%
Cc1c(OCC(F)(F)F)ccnc1CS(=O)c1nc2ccccc2[nH]1 (stereo not drawn) -11.6% and -0.198% and -54.3%
